Measured values from ChEMBL document CHEMBL4888484, “Replenishing the malaria drug discovery pipeline: Screening and hit evaluation of the MMV Hit Generation Library 1 (HGL1) against asexual blood stage Plasmodium falciparum ,using a nano luciferase reporter read-out” (2022).
Out of some 150,000 compounds screened, about 540 (0.36%) showed an effect of 50% or more. The list shows a part of the results.

The molecules below were run on Plasmodium falciparum (assay: Primary screen in NF54 nanoGlo assay, in single point, at 2uM, 72h; a lower Z score goes with more inhibition). Conditions: timepoint 72 hour.
Type: functional, Erythrocyte

SMILES	% Inhibition	Z score
O=C1CC[C@]2(CCCN(c3cc(C(F)(F)F)ccn3)C2)CN1C1CC1	4%	-0.61
CC(=O)N1C[C@H]2CN(Cc3ccc(OC(F)(F)F)cc3)CC[C@@]2(c2nc(C)n[nH]2)C1	30%	-3.35
Cc1ccc(-c2noc(-c3nnn(Cc4nc(-c5ccc(C)cc5)oc4C)c3C)n2)cc1	-10%	1.4
CCc1cc(CC(=O)N2CCC(=O)N(C)c3ccccc32)n(C)n1	-9%	1.38
CC(C)(C)OC(=O)N1CC2CC3CC2C1C3NCc1cc[nH]n1 (centres undefined)	-11%	1.5
CC(C)Cc1noc(CN(C)Cc2noc(C3CC3)n2)n1	-9%	1.58
Cc1ccc(CNC(=O)c2nnn3c2CO[C@H](c2ccccc2)C3)o1	2%	-0.21
COc1ncc(NC(=O)Nc2ccccc2)c(N2CCCC2)n1	25%	-3.84
O=C(c1cncc(-n2ccnn2)c1)N1CCOc2c(Cl)cccc21	-7%	1
COc1cc(-c2ccccc2)ccc1CN[C@H]1CCC(=O)NC1	-9%	1.35
CC1CN(Cc2ccccc2)CCC1N(C)C(=O)c1ccc(CN)o1 (centres undefined)	4%	-0.51
O=C(COC(c1ccccc1)c1ccccc1)Nc1ccncc1	0%	0.05
CCOc1ccc(NC(=O)N2CCc3c(c(=O)c4cc(C)cc(C)c4n3C)C2)cc1	-1%	0.23
Cc1nnc2ccc(-c3noc(-c4ccsc4)n3)cn12	-13%	2.3
Cc1ccc(-c2ccc(Oc3ccc(C(F)(F)F)cn3)c(C)c2)cc1	-7%	0.97
C[C@@H](c1ccccc1)N(Cc1cccc(Cl)c1)Cc1nc(C(=O)NCc2ccco2)co1	7%	-0.67
CC1CCN(Cc2cc(=O)n3ccccc3n2)CC1	-4%	0.52
CCc1nc(CN(C)Cc2csc(C)n2)cs1	-17%	2.65
Cc1ccccc1CC1(NC(=O)CCO)CC1	-2%	0.28
CC(C)Oc1ccc(C(=O)N2C[C@@H](CN3CCN(C)CC3)[C@@H](CO)C2)cc1	-9%	1.35
COc1ccccc1CC(C)CC(=O)N1CCCC1C(=O)O (centres undefined)	1%	-0.08

SMILES	% Inhibition	Z score
CCN1CCN(c2c(CN(CC(C)C)C(=O)c3cccc(OC)c3)c(C)nn2-c2ccccc2)CC1	-5%	0.73
O=C(Cn1cnc2c(c1=O)CCCC2)NCc1ccccc1Cl	0%	0.03
Brc1cc2c(cc1Cn1cc(-c3cnn(Cc4cc5c(cc4Br)OCCO5)c3)cn1)OCCO2	-4%	0.64
O=C(Cc1cccc2ccccc12)N1CCCC[C@@H]1CCN1CCCCC1	4%	-0.54
CO[C@H]1CCN(c2cc(C(C)C)nc3ncnn23)CC1(C)C	-2%	0.37
Cn1cc(S(=O)(=O)N2CCCCCC2)cc1C(=O)NCc1ccccc1Cl	-12%	1.64
C[C@@H](C(=O)NC(N)=O)N1CCOc2ccccc2C1	-14%	2.15
CCOc1cncc(CNc2cnc3[nH]nc(C)c3c2)c1	-11%	2.07
CC(=O)c1ccc(C(=O)N2CCC[C@@]3(CCC(=O)N(CCO)C3)C2)cc1	-4%	0.7
CS(=O)(=O)c1ccc(NC2CC3CC3C2)nc1 (centres undefined)	8%	-1.14
O=C(NCc1nc2ccccc2n1C1CC1)c1ccc(O)nc1	-8%	0.83
C[C@H](Oc1ccccc1CN1CC(c2ccncc2)C1)C(=O)O	-14%	1.94
CCCNC(=O)CNC(=O)Cc1ccc(OC)cc1	-12%	1.62
CC(C)n1ncc2cc(CNc3ncccc3OC(F)F)cnc21	-10%	0.99
Cc1ccc(C)c(CN2CCC3(CCC(=O)N(C4CC4)C3)CC2)c1	-16%	2.12
O=C(c1ncnc2ccsc12)N1CCc2nc[nH]c2C1	-9%	1.75
CNS(=O)(=O)CC(=O)NC(C)(C)c1ccc(F)cc1Cl	1%	-0.1
Nc1n[nH]c2c1CCN(Cc1ccccc1)C2	-15%	1.97
O=C(Cn1ncnn1)NCC1(c2ccc(Cl)cc2Cl)CCC1	-13%	1.34
CS(=O)(=O)CCc1ccc(N[C@H]2CCc3ccc(F)cc32)cc1	-8%	1.03
COCCNC(=O)CN1CN(c2ccccc2)C2(CCN(C(=O)C3CCCCC3)CC2)C1=O	-19%	2.36
